The other results are listed elsewhere or left out. The list includes weakly bound sequences.
Biological target: MaxL homodimer (UniProt P61244)
Assay: universal protein-binding microarray (PBM)
Details: PBS-based mixture, 10 nM His-tagged protein dimer, 2% milk, 200 ng/uL BSA, 50 ng/uL salmon testes DNA, 0.02% TX-100; detection with Alexa 488 anti-His …; high values mean tight binding; most listed sequences are background and not binding sites; double strand, one strand shown

Sequence of UniProt P61244 (P61244 whole entry): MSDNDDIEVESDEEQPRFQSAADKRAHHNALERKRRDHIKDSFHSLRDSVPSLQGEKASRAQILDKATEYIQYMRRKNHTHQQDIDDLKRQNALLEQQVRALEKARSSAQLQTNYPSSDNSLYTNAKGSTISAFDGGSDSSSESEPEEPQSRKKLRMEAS

Row | Sequence | binding signal (normalized occupancy)
1 | ACTGATGA | 0.0724
2 | ATCCGCCG | 0.0699
3 | GACGAGGA | 0.0731
4 | GGAGGCCA | 0.0712
5 | CGTCGCAG | 0.0728
6 | AGTTGTTC | 0.073
7 | AACAAAAT | 0.0826
8 | GAAGTCCC | 0.0754
9 | CTAGAGCA | 0.0702
10 | GTGAACCA | 0.0773
11 | ACAGGGGT | 0.0756
12 | CTTTCAGA | 0.0772
13 | AGTGAAAA | 0.0707
14 | CACACAGC | 0.0788
15 | GATGGACA | 0.0742
16 | CACAAAGC | 0.0707
17 | GAGTATGC | 0.0816
18 | ATCCACCC | 0.0795
19 | GAGCTAAA | 0.0759
20 | CAACTTAG | 0.0721
21 | AAGCAGTA | 0.0725
22 | CCGCTTGC | 0.0705
23 | ACATGTTA | 0.0993
24 | CGGGTCCC | 0.0721
25 | AAGCTACT | 0.0668

Row | Sequence | binding signal (normalized occupancy)
26 | CACTGGGG | 0.075
27 | CATAACAA | 0.0809
28 | AGGAGTTG | 0.0735
29 | GAACCCAC | 0.0754
30 | GAGCCGAC | 0.0664
31 | AACCGAGC | 0.0653
32 | AGGAACTC | 0.0745
33 | GCCGCTCA | 0.068
34 | CTTCGGAC | 0.0699
35 | AAACGGTC | 0.0768
36 | AGATACTC | 0.0831
37 | ATAGGGGA | 0.0849
38 | AGTCATAT | 0.0903
39 | AATTTTAC | 0.072
40 | GCTGCCAC | 0.0765
41 | AATTTGAT | 0.071
42 | ATACCCAA | 0.0764
43 | AGAGAGGG | 0.0758
44 | AGGGTGAT | 0.0764
45 | TGTACAAA | 0.0802
46 | CATGCTCG | 0.106
47 | TAATACAA | 0.0758
48 | CCCACAAA | 0.075
49 | TCATTTAA | 0.0823
50 | TACATATA | 0.0865

Row | Sequence | binding signal (normalized occupancy)
51 | AAATCAAG | 0.0746
52 | CTCAAAAC | 0.0752
53 | GGCCACCC | 0.0757
54 | ATACGTCG | 0.0848
55 | CATTAGAC | 0.0749
56 | TGAATAAA | 0.0814
57 | GGCAGAAA | 0.0684
58 | ATGGATCC | 0.0823
59 | AGAGAGGA | 0.0724
60 | CAGACTGA | 0.0693
61 | TCGAGTAA | 0.0728
62 | CCGAGACG | 0.0692
63 | CAGGAATC | 0.0782
64 | AAAGGACG | 0.0686
65 | GCAGGTTA | 0.0708
66 | ACATTTAC | 0.0798
67 | GCCGAACA | 0.0704
68 | AACCCTGC | 0.0705
69 | AGCGATTG | 0.0734
70 | ATGTCTTA | 0.0882
71 | AGACCTTA | 0.0772
72 | AGGGGGCC | 0.0693
73 | CGACGAAG | 0.0714
74 | AATGACTC | 0.0783
75 | AGACGCTA | 0.0657

Row | Sequence | binding signal (normalized occupancy)
76 | AAGCGCCC | 0.0659
77 | CAAAGTCC | 0.0657
78 | CATGCAGC | 0.0946
79 | GCTAGGAA | 0.0727
80 | CAAATGAC | 0.0825
81 | AAAGCCGC | 0.0669
82 | GTCGCTGA | 0.0755
83 | AAAACTTT | 0.0676
84 | GTTTATGA | 0.0782
85 | GAAGGGGC | 0.0757
86 | AGAATTTC | 0.0749
87 | TAGAGCAA | 0.0708
88 | ATCGGCTC | 0.0723
89 | AGATCCAA | 0.0706
90 | GGAAGTTA | 0.0752
91 | GGCAACCA | 0.0697
92 | AAGGTCGC | 0.074
93 | AGTAAATG | 0.0734
94 | CGTCGGTA | 0.0699
95 | AAGATACG | 0.072
96 | CCCAGTGA | 0.0723
97 | AACTCGGT | 0.0731
98 | AACTTATT | 0.0797
99 | AATTCCGA | 0.0729
100 | AAGGTGAG | 0.0742

Row | Sequence | binding signal (normalized occupancy)
101 | CAGGCTAG | 0.0704
102 | GCTTGGGA | 0.0733
103 | CGATGTGC | 0.0807
104 | CGGGCAAA | 0.0682
105 | GGGCAATA | 0.081
106 | ATACAAAT | 0.0878
107 | ATTGAACA | 0.0789
108 | CCGCAGCC | 0.0714
109 | TCGGCTCA | 0.0716
110 | CGACAGAG | 0.0711
111 | ATAGCATA | 0.0872
112 | CAGACTAG | 0.0708
113 | GAGAAAGA | 0.0693
114 | GCCACTTA | 0.0728
115 | AGTAGGTC | 0.0721
116 | ATGAGTCG | 0.0808
117 | ATAGGTCA | 0.0845
118 | ACTTTCTG | 0.0733
119 | CTTGCAGA | 0.0701
120 | CCCCTGGC | 0.0675
121 | CCGGAGCC | 0.0668
122 | CGTAAACG | 0.0704
123 | CAGGATAA | 0.0834
124 | TCCCGGGA | 0.0631
125 | AAACTTCA | 0.0765

Row | Sequence | binding signal (normalized occupancy)
126 | GAAATTAC | 0.0763
127 | AGGTCTAT | 0.08
128 | ACCTCGTA | 0.0827
129 | CCCCGTGC | 0.0948
130 | CTCTCCCC | 0.0757
131 | CTGGGTCC | 0.0738
132 | GACTACCA | 0.0763
133 | AATCTCAT | 0.0816
134 | CACGCCTG | 0.0966
135 | TCCTCTAA | 0.075
136 | CCGTAGAG | 0.0713
137 | TAACTTAA | 0.0727
138 | TTAGGCAA | 0.0725
139 | AGCCACGA | 0.0883
140 | CTTCCTTC | 0.0733
141 | AATGTGCG | 0.0957
142 | AAGTACAA | 0.078
143 | CTCGGGAC | 0.0711
144 | GCTCCCCC | 0.0663
145 | CATACTCC | 0.085
146 | AAACCATA | 0.0792
147 | CAGACTGG | 0.0699
148 | GTACTGGA | 0.0747
149 | ACTACTAC | 0.075
150 | AATGCGAT | 0.0782

Row | Sequence | binding signal (normalized occupancy)
151 | CTTACAGC | 0.0716
152 | AAAGTTCG | 0.0662
153 | ATTCTAGA | 0.0727
154 | ATGTAGGA | 0.0768
155 | AACGCCTT | 0.0705
156 | AGATACAA | 0.0805
157 | AGGGACAC | 0.0687
158 | AGGAATTG | 0.0797
159 | AATTCCAA | 0.0755
160 | CATGTCCA | 0.0873
161 | GCAAATCC | 0.0711
162 | TGCTAAAA | 0.0817
163 | AGCTCTCC | 0.0744
164 | AGGGCCCA | 0.0684
165 | TAATTCCA | 0.0791
166 | CTCGGTTA | 0.0699
167 | CCTACGGA | 0.0694
168 | GTGCGATA | 0.0827
169 | CAACAGTC | 0.0718
170 | CCTAAGTC | 0.0703
171 | GCTATAAA | 0.0747
172 | AAGTTCCC | 0.0683
173 | TCCTTAAA | 0.0679
174 | TGCAGACA | 0.0728
175 | ATCTAGCG | 0.0744

Row | Sequence | binding signal (normalized occupancy)
176 | CCGTAGCC | 0.0683
177 | CTAAATAG | 0.0735
178 | CCCCCGTC | 0.0826
179 | AACCATAA | 0.081
180 | AGTACGAA | 0.0712
181 | ATGTGGGA | 0.0914
182 | AGCGTAGA | 0.0698
183 | CTATTAAC | 0.0779
184 | GAGGCCCC | 0.0733
185 | CACCAGGA | 0.0715
186 | ACCTGGCG | 0.0775
187 | AACCAGAC | 0.0734
188 | TAGAGATA | 0.0742
189 | CCACTTGC | 0.0746
190 | CAAATCCC | 0.0732
191 | CAGTTCCA | 0.0804
192 | GGCATTCA | 0.0765
193 | ACCAAGAT | 0.0752
194 | CCTGCGAG | 0.0694
195 | GGTTGTGA | 0.0775
196 | CTAATTCA | 0.0768
197 | AAGATAAA | 0.0789
198 | AGGCTCCA | 0.0715
199 | AATAAAGG | 0.075
200 | AAAATTAT | 0.0765

Row | Sequence | binding signal (normalized occupancy)
201 | GTGCGCTA | 0.0817
202 | ACTAACTC | 0.076
203 | AAAAAGAA | 0.0757
204 | ATTGCAAT | 0.0742
205 | AAAAGGTA | 0.074
206 | ACTGGGAG | 0.0717
207 | ATTATCCG | 0.077
208 | AAAGACTT | 0.0717
209 | CGTAATCC | 0.0766
210 | GGCATGCA | 0.109
211 | CCCGGTAA | 0.0715
212 | CGCGAAAG | 0.0692
213 | GATCAGAC | 0.0753
214 | CAAAAACC | 0.0703
215 | ATTAGAAA | 0.0751
216 | GACAGGAC | 0.0719
217 | CCTGGGCC | 0.0723
218 | AGCTAGCT | 0.0712
219 | AGTCTATC | 0.0774
